The subject of data set [1] is histamine H2 -type receptors. Description: Antagonism of the effect of histamine on the respiratory burst of monocytes. The class given is cell-based, human. Particulars: histamine 10^-5 M, fMLP-stimulated monocytes. The procedure:
Monocytes were treated with histamine plus ranitidine (open circles) or AH20239AA (filled circles).
In these experiments, monocytes were treated with histamine (10^-5 M) together with ranitidine or AH20239AA at final concentrations indicated in FIG. 7. All cells were treated with fMLP at time=0.

The test system of data set [2] is K562 target cells.
For data set [3], the system named is NK cells. Particulars: cited from earlier work; for effect on suppression of NK cells: presence of histamine and serotonin.
The conditions of data set [4]: histamine 10^-4 M, MPO 10 μg/ml, cell free. The protocol: (§1) Chemiluminescence (CL) of cells was recorded at 37° C. in a 6-channel Biolumat LB 9505 (Berthold Co., Wildbad, Germany) using 4 ml polypropylene tubes as described by Lock et al. Anal. Biochem. 173:450 (1988). The reaction mixture contained 0.8 ml elutriated monocytes (5×10^6 cells/ml). The tubes were allowed to equilibrate for 5 minutes at 37° C. before formylmethionyl-leucyl-phenylalanine (fMLP; Sigma; 10^-7 M final concentration) and luminol (Sigma; 10^-6 M) were added and light emission recorded. Formylmethionyl-leucyl-phenylalanine was dissolved to 10^-2 M in dimethyl sulfoxide and subsequently diluted in Krebs-Ringer phosphate buffer supplemented with glucose (10 mM), Ca^2+ (1 mM), and Mg^2+ (1.5 mM). Luminol was dissolved in 0.1 mM NaOH to 5×10^-2 M and further diluted in Krebs-Ringer phosphate buffer.

Data set [5] deals with K562 target cells. The protocol: After 1 hour incubation, nonadherent lymphocytes were recovered, washed twice, and assayed for cytotoxicity as described above. We wished to determine whether the NK cell inhibitory signal was reversible by removal of monocytes and removal of monocyte-derived products.
The source holds these as a separate data set.

The test system of data set [6] is respiratory burst of monocytes. Briefly: Respiratory burst activity of monocytes (luminol-enhanced chemiluminescence). The class given is cell-based, human. Particulars: for inhibition of generation of reactive oxygen products by monocytes: acting via monocyte H2 receptors, conclusion; for effect on the respiratory burst of monocytes: compared with histamine. The procedure: as §1
In a second set of experiments, effects of histamine and H2 R-interactive compounds on the respiratory burst activity, as measured by the luminol-enhanced CL response of enriched, elutriated monocytes, were studied. Monocytes were treated with culture medium (control), histamine (10^-5 M), sodium azide (10^-5 M), or histamine and sodium azide as described below. Emission of CL was recorded after addition of fMLP at time=0.

For data set [7], the system named is K562 target cells. Description: IL-2-induced NK cell cytotoxicity with or without monocytes (microcytotoxicity). Particulars: histamine 10^-4 M or catalase 20 U/ml; IL-2 50 U/ml, 16 hours. The procedure:
These mixtures were then incubated with K562 target cells in sextuplicate in microplates in a total volume of 200 μl and assayed for microcytotoxicity.

The subject of data set [8] is RBC. Particulars: histamine 10^-4 M, H2 O2 5×10^-5 M.
The subject of data set [9] is NK cells. The following applies: histamine 10^-4 M or catalase 20 U/ml; IL-2 50 U/ml, 48 hours. The protocol: During the last 8 hours of incubation, cells were pulsed with ^3 H-methyl-thymidine (specific activity 2 Ci/mole; New England Nuclear Corp.; 1 μCi/2×10^5 cells). Following incubation, the cells were collected on glass fiber filters with an automatic cell harvester and cell-incorporated ^3 H-methyl-thymidine was estimated by liquid scintillography.

In data set [10] the test system is K562 target cells. The following applies: histamine 10^-4 M or catalase 20 U/ml, added at time points after start of assay.
Data set [11] relates to K562 target cells. This is another data set of the same source.
For data set [12], the system named is human neoplasia. Particulars: cited from earlier work.
Data set [13] relates to RBC. Description: cells. The following applies: Erythrocyte, read-out: lysis of RBC.
For data set [14], the system named is K562 target cells. Description: cells. The following applies: Homo sapiens, K562, read-out: ED50 for suppression of NK cell cytotoxicity.
Data set [15] deals with NK activity. Particulars: spleen, liver, lungs, peritoneum; cited from earlier work.
Data set [16] relates to YAC-1 mouse lymphoma cells. Particulars: 100 U/kg, intravenous, 2 hours after tumor inoculation.

Read-outs that look alike come from different tables or passages of the source.

As to `CNC(=C[N+](=O)[O-])NCCSCc1ccc(CN(C)C)o1` [ranitidine], the “block of the effects of histamine on the respiratory burst” value in data set [1] is reported as “entirely blocked”.

As for `CNC(=N)NCCC[C@H](N)C(=O)O` [L-NMMA], the cell lysis % amounted to 11 ± 1% in data set [2] (2 × 10^-4 M, MO+, medium); 45 ± 3% in [2] (2 × 10^-4 M, MO+, with histamine 10^-4 M); 61 ± 3% in data set [2] (2 × 10^-4 M, MO-, medium); 54 ± 2% in [2] (2 × 10^-4 M, MO-, with histamine 10^-4 M).

Take `CC(=O)N(O)CCCCCNC(=O)CCC(=O)N(O)CCCCCNC(=O)CCC(=O)N(O)CCCCCN` [deferox, deferoxamine]: the cell lysis % in data set [2] (10^-4 M, MO+, medium) was 12 ± 3%; in data set [2] (10^-4 M, MO+, with histamine 10^-4 M) it was 60 ± 2%; in data set [2] (10^-4 M, MO-, medium) it was 81 ± 2%; in data set [2] (10^-4 M, MO-, with histamine 10^-4 M), 74 ± 5%.

Consider `OC[C@@H](O)[C@@H](O)[C@H](O)[C@H](O)CO` [mannitol], for which the cell lysis % in data set [2] (3 × 10^-4 M, MO+, medium) amounted to 20 ± 1%; in data set [2] (3 × 10^-4 M, MO+, with histamine 10^-4 M), 67 ± 2%; in data set [2] (3 × 10^-4 M, MO-, medium), 73 ± 3%; in data set [2] (3 × 10^-4 M, MO-, with histamine 10^-4 M), 68 ± 3%.

As for “IL-12: also known as natural killer cell stimulatory factor (NKSF), is a recently discovered cytokine”, the “effect on NK cell activity/cytotoxicity” value in data set [3] was “increase NK cell and cytotoxic T lymphocyte activity, T cell proliferation, and the production of interferon-γ”. In addition, the “cytotoxic activity of peripheral blood lymphocytes” value in data set [3] (tumor-derived target cell lines) was “enhance the spontaneous cytotoxic activity of peripheral blood lymphocytes against a variety of tumor-derived target cell lines”.

As to `O=C(O)Cc1cccc2c(=O)c3ccccc3oc12` [XAA, Xanthenone-4-acetic acid], the “effect on NK cell activity/cytotoxicity” value in data set [3] is “induce NK activity in vitro”.

Turning to `NCCc1c[nH]cn1` [histamine], in data set [4], the “effect on CL recorded with H2 O2 and/or MPO or H2 O2 and HRP” value is given as “unchanged”. For the same molecule, the cell lysis % in [5] (pretreatment 1 hour, 10^-5 M, MO+) was found to be 51 ± 2%; in [5] (pretreatment 1 hour, 10^-5 M, MO-), 59 ± 3%. Moreover, the “cytotoxicity of lymphocytes recovered from monocyte/NK cell mixtures” value in data set [5] (pretreatment 1 hour, versus medium control) is listed as “more cytotoxic against K562 target cells than control mixtures pretreated with medium only”. Further, in data set [6], the “inhibition of generation of reactive oxygen products by monocytes” value is reported as “inhibit the generation of reactive oxygen products by monocytes”. In addition, the “onset of block of respiratory burst activity” value in data set [6] (data not shown) is reported as “blocked respiratory burst activity within seconds”. The “inhibition of respiratory burst activity” value in data set [6] (histamine 10^-5 M, unstimulated and fMLP-stimulated monocytes) is “effectively inhibited both the burst activity of unstimulated monocytes and the induction of burst by fMLP”. The “inhibition of fMLP induced CL response with sodium azide and excess HRP” value in data set [6] (sodium azide-treated monocytes, exogenous HRP) was “inhibited the fMLP induced CL response”. In addition, in [7], the “reversal of monocyte-induced inhibition of IL-2-induced NK cell cytotoxicity” value is given as “effectively reverse this monocyte-induced inhibition”. Further, the “effect on suppression of NK cells” value in data set [3] is reported as “halted”. In addition, the “effect on RBC killing induced by H2 O2” value in data set [8] is listed as “did not alter the level of RBC killing induced by H2 O2”. In [9], the “reversal of monocyte-induced inhibition of IL-2-induced NK cell proliferation” value is “effectively reverse this monocyte-induced inhibition”. The “time window of effect on the NK cell suppressive signal” value in [10] is reported as “effective in inhibiting the NK cell suppressive signal only when these compounds were added within the first hour of incubation”. For the same molecule, the “reversal of H2 O2-induced inhibition of NK cells” value in data set [11] (catalase 20 U/ml, histamine, data not shown) is reported as “but not histamine”. Further, the “effect in the presence of catalase” value in data set [2] (presence of monocytes and catalase) is reported as “ineffective in the presence of catalase”.

For IFN-α, the “effect on NK cell activity/cytotoxicity” value in data set [3] is listed as “enhance NK cell cytotoxicity”. Further, the clinical anti-tumor outcome in data set [12] (high doses) is “the overall results of therapy with high doses of IFN-α have been disappointing”. Further, the “side effects / toxic reactions in patients” value in data set [12] (human, in vivo) was “acute toxic reactions including fever, chills, myalgias, anorexia, fatigue, headache, nausea and vomiting”.

`CN(C)CCCSC(=N)N` [Dimaprit]: in data set [6], the “effect on the respiratory burst of monocytes” value is on record as “mimicked the effect of histamine on the respiratory burst of monocytes”. Further, the “incubation time until maximal effect on respiratory burst (not maximal until after)” value in [6] (data not shown) was in the range of 10 to 15 min.

As for `OO` [H2 O2, hydrogen peroxide], the hemolysis at 50 µM in [13] is about 50%. Besides, in data set [5], the “inhibition of NK cell cytotoxicity by pretreatment” value was “sufficient to effectively inhibit NK cell cytotoxicity”. Further, the cell lysis % in data set [5] (pretreatment 20 minutes, 1.5 × 10^-6 M, MO-) turned out to be 26 ± 2%; in data set [5] (pretreatment 20 minutes, 3 × 10^-6 M, MO-) it was 12 ± 1%; in data set [5] (pretreatment 20 minutes, 6 × 10^-6 M, MO-), 2 ± 1%. Besides, in data set [14], the IC50 is about 2000 nM. Also, in data set [11] (0-10 μM, enriched NK cells), the “suppression of NK cell cytotoxicity” value is on record as “effectively suppressed NK cell cytotoxicity”.

With `O=C(O)Cc1cccc2c(=O)cc(-c3ccccc3)oc12` [FAA, Flavone-8-acetic acid], the “NK activity in vivo” value in data set [15] is “potently augment NK activity in the spleen, liver, lungs, and peritoneum”. Moreover, in data set [12] (human, in vivo), the “reasons for disappointing clinical trials” value is “non-linear pharmokinetics, low dose potency and problems of drug precipitation”.

With catalase, in data set [9], the “reversal of monocyte-induced inhibition of IL-2-induced NK cell proliferation” value was “effectively reverse this monocyte-induced inhibition”. Also, the “NK cell-mediated killing of YAC-1 lymphoma cells in vivo (retained radioactivity in lungs)” value in [16] is on record as “augmented the NK cell-mediated killing of YAC-1 lymphoma cells in vivo”.

With `NCCc1c[nH]c2ccc(O)cc12` [serotonin], the “inhibition of generation of reactive oxygen products by monocytes” value in [6] is “inhibit the generation of reactive oxygen products by monocytes”. Further, the “effect on suppression of NK cells” value in data set [3] is “halted”.

Take `NCCS(=O)(=O)O` [taurin]: the cell lysis % in [2] (10^-3 M, MO+, medium) is recorded as 6 ± 1%; in data set [2] (10^-3 M, MO+, with histamine 10^-4 M), 64 ± 3%; in data set [2] (10^-3 M, MO-, medium) it was 70 ± 4%; in data set [2] (10^-3 M, MO-, with histamine 10^-4 M), 75 ± 4%.

`CN(C)CCSC(=N)N` [nor-dimaprit]: in data set [6], the “effect on the respiratory burst of monocytes” value is given as “ineffective”.

B1: IFN-γ: interferon-γ (protein, UniProt P01579 24-161, looked up)
Interferon gamma: QDPYVKEAENLKKYFNAGHSDVADNGTLFLGILKNWKEESDRKIMQSQIVSFYFKLFKNFKDDQSIQKSVETIKEDMNVKFFNSNKKKRDDFEKLTNYSVTDLNVQRKAIHELIQVMAELSPAAKTGKRKRSQMLFRG
Regarding B1, the “effect on NK cell activity/cytotoxicity” value in data set [3] was “enhance NK cell cytotoxicity”.
